Measurements as given in PubChem BioAssay (NCI).
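Cultured in 96-well plates, cells were exposed to test compound for 48 hours across five concentrations. GI50 = concentration required for 50% inhibition of growth. TGI: total growth inhibition.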

The molecules below were run on NCI-H322M lung (assay: NCI tumour cell line growth inhibition, 48 h).
Work on `CCN1CCN(C(=O)[C@@]2(C)CC[C@]3(C)CC[C@]4(C)C(=CC(=O)[C@@H]5[C@@]6(C)CC[C@H](OC7C[C@@H](O)[C@@H](O)C(C)O7)C(C)(C)[C@@H]6CC[C@]54C)[C@@H]3C2)CC1` (stereo partly drawn) yielded a GI50 of 2.01 µM and a TGI of 7.59 µM.
With `Cc1ccc(-c2c(C#N)c(-c3ccc(C)cc3)n(NS(=O)(=O)c3ccccc3)c(=O)c2C#N)cc1` the TGI was > 100 µM.
With `c1ccc(-c2nnc(-c3ccccn3)s2)nc1` the GI50 was > 100 µM and the TGI was > 100 µM.
`C=C(Cl)C(=CCl)CCC(Br)C(C)(C)Cl` (mixture of isomers) was tested, and the TGI was > 10 µM.
Molecule `Cc1ccc(/C=N/Nc2cc(C)c3cccc(C)c3n2)s1` has a TGI of 16.3 µM.
`CO/N=C(/C)c1cccc(Nc2cc(-n3nnc4ccccc43)nc3ccccc23)c1` gave a GI50 of 11.6 µM and a TGI of 71.8 µM.
Work on `COc1cccc(C2c3cc4c(cc3OC(N3CCCCC3)C2C)OCO4)c1O` (stereo not drawn) yielded a TGI of 39.7 µM.
In the case of `O=[N+]([O-])c1cccc(C2=NN(c3ccccc3)C[N+](c3ccc(Br)cc3)=N2)c1`, the TGI is reported as > 100 µM.
Molecule `C[N+](C)(C)CC1CCCc2ccccc2C1=O` (stereo not drawn) has a TGI of 32.4 µM.
`Cc1ccc(C2SCC(=O)N2c2ccc(-n3c(-c4ccccc4)nc4ccccc4c3=O)cc2)cc1` (stereo not drawn) was tested, and the TGI was > 100 µM.
In the case of `Cc1ccc(S(=O)(=O)Nc2ccccc2C=O)cc1`, the TGI is reported as 53 µM.
`COc1cc(C2c3cc4c(cc3OC(N3CCCCC3)C2C)OCO4)cc(OC)c1O` (stereo not drawn) showed a TGI of 44.3 µM.
`C=CCCON(C(=O)OC(C)(C)C)C(C)(C)C` was tested, and the TGI was > 100 µM.
`Cc1ccnc2[nH]c(-c3ccc4ccccc4c3)cc(=O)c12` gave a TGI of 4.82 µM.
For `Nc1ccc([N+](=O)[O-])cc1N=C/C=C/c1ccccc1`, the GI50 was 25.9 µM and the TGI was > 100 µM.
In the case of `Cc1c2n(c(=O)[nH]c1=O)C1OC(CO)C(O2)C1O` (stereo not drawn), the TGI is reported as > 100 µM.
In the case of `CC(C)(C)OC(=O)NC1CCCCC1NC(=O)C(=O)NC1CCCCC1NC(=O)OC(C)(C)C` (stereo not drawn), the TGI is reported as > 100 µM.
For `O=c1oc2ccc3ccccc3c2cc1-c1nc2ccccc2s1`, the TGI was > 100 µM.
`O=[N+]([O-])c1ccc(CN(CCCl)OCCCl)cc1` was tested, and the TGI was > 100 µM.
`CC1(C)[C@@H](Cn2ccc(=O)[nH]c2=O)CC[C@@]1(C)CO` was tested, and the TGI was > 100 µM.
With `CN1CCN(C2CCN(C(=O)Nc3cc(Oc4ccc(NC(=O)C5(C(=O)Nc6ccc(F)cc6)CC5)c(F)c4)ccn3)CC2)CC1` the TGI was > 10 µM.
Work on `CC(C)Cc1ccc(C(C)C(=O)N2CCN(/C=C/c3ccccc3)CC2)cc1` (stereo not drawn) yielded a TGI of 31.4 µM.
`COc1cc(OC)c2nc(C)c(CCCl)c(Cl)c2c1` was tested, and the TGI was > 100 µM.
`CCN(CC)Cc1ccc(C(=S)Nc2ccc(Cl)cc2)s1` was tested, and the TGI was 23.5 µM.
For `Cc1[nH]c(=O)nc2nc3ccc(Cl)cc3c(NCCNCCO)c12`, the TGI was 21.4 µM.
`Cc1c(C)c2c(c(N)c1C#N)C(=O)N(NC(=O)c1ccccc1)C2=O` was tested, and the TGI was > 100 µM.
In the case of `COC(=O)c1ccc2c(c1)nc(NC(=O)c1ccccc1)n2CCCc1ccccc1`, the GI50 is reported as 4.29 µM and the TGI is reported as > 100 µM.
For `NC(=S)N/N=C/C(=O)O`, the GI50 was > 100 µM and the TGI was > 100 µM.
Work on `CC[As](CC)SC[C@H](C)C(=O)N1CCC[C@H]1C(=O)O` yielded a GI50 of 1.37 µM and a TGI of 2.68 µM.
`CC(C)CCC1CC2C(=O)N(c3ccccc3)C(=O)C2c2[nH]c3ccccc3c21` (stereo not drawn) gave a TGI of 22.1 µM.
`CCC(=O)CC(=O)CCC(=O)Nc1cc(C)ccc1C` was tested, and the TGI was > 100 µM.
